According to article PMC4336329 (PLoS ONE, 2015):
Out of some 310,000 compounds screened, about 14,000 (4.5%) showed an effect of 50% or more. The effect is printed as a negative number. The list shows a part of the results. Where a SMILES comes first, the peptide text is derived from it. The star is where a group is joined. Boc = CC(C)(C)OC(=O)*; OBn = c1ccc(CO*)cc1

Each molecule was assayed against human ether-à-go-go-related gene (hERG) potassium channel (human, UniProt Q12809) (assay: primary screen, population patch clamp on CHO cells stably expressing hERG).
Sequence of human ether-à-go-go-related gene (hERG) potassium channel (Q12809 whole entry, looked up): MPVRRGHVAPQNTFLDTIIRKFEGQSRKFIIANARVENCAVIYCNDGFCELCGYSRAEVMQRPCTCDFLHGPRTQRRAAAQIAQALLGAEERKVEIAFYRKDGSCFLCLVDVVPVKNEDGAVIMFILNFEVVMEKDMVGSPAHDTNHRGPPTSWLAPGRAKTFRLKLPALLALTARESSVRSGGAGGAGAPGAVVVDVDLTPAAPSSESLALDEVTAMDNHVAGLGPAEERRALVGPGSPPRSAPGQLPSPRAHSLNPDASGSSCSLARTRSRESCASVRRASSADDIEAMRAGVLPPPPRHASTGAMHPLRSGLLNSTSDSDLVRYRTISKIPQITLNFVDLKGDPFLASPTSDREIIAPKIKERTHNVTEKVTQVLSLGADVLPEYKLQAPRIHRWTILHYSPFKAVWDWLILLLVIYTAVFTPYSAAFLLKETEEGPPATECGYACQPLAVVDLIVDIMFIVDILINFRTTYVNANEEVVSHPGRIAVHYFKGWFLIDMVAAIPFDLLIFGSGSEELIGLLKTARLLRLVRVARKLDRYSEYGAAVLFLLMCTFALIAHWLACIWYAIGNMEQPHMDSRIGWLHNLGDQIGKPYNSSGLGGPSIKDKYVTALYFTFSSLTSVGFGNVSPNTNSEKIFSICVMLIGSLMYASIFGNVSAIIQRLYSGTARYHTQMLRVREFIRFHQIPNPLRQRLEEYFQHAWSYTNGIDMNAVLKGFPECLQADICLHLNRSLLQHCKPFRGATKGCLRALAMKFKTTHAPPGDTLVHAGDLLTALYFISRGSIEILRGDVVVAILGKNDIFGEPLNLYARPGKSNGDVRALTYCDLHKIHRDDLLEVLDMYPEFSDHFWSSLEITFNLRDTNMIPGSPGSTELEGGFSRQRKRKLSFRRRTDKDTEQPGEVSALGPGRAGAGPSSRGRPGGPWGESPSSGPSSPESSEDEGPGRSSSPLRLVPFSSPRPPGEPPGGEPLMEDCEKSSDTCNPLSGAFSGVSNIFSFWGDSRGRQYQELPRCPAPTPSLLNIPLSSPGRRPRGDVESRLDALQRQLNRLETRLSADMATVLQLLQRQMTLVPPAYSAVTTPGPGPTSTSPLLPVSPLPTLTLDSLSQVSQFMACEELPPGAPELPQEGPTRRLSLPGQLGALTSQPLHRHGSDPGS
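Note: peak tail current of the secondary pulse compared with the same well before compound.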

Compound	hERG current change (%, negative = inhibition) at 10uM [%]
Oc1ccccc1-c1nc(NCc2ccco2)c2ccccc2n1	1.8
CCc1ccc2c(CN(C)Cc3ccccc3OC)cc(=O)oc2c1.O=C(O)C(=O)O	-21.3
O=S1(=O)N=C(N2CCCC2)c2ccccc21	18.9
COc1ccccc1-n1nnnc1SCC(=O)Nc1cc(C)on1	-15.4
COc1ccc(S(=O)(=O)N2CCCOC2CNC(=O)C(=O)NCCc2ccco2)cc1 (stereo not drawn)	4.42
C=CCc1ccc(OCCOCCNCCCC)c(OC)c1	-46.5
COc1ccc(CCNC(=O)C/C(C)=N/NC(=O)C2CCCCC2)cc1OC	8.79
Cc1ccc(NC(=S)N2CCC(O)CC2)c(C)c1	16.3
CCOC(=O)C1CN(S(=O)(=O)c2cccs2)c2ccc(CC(=O)OC)cc2O1 (stereo not drawn)	-15.1
COC(=O)CSc1nc(-c2ccccc2)cc(-c2ccco2)c1C#N	12.5
CC(=O)Nc1ccc(NC(=O)c2ccccc2C)cc1	15.4
Cc1ccc(-c2csc(NC(=S)NC(=O)/C=C/c3ccco3)n2)cc1	23.6
CCOc1ccc(-c2nnc3ccc(SCC(=O)Nc4nc5ccc(C)cc5s4)nn23)cc1	-17.8
COc1ccc(NC(=O)COC(=O)c2cc(OC)c(OC)c(OC)c2)c([N+](=O)[O-])c1	-5.26
O=C1CN(C(=O)c2ccccc2Br)C(c2ccc(F)cc2)c2cc(F)ccc2N1 (stereo not drawn)	-61.6
CCN(CC)c1ccc(NC(=O)C2CCCC2)cc1	3.17
Cn1c(N)c(C(=O)CSc2nnc(-c3ccccc3F)n2N)c(=O)n(C)c1=O	15
Cc1ccc(-c2cc(Cc3ccccn3)c(=O)[nH]n2)cc1	-5.24
COc1ccc(N2CSC3=C(C#N)C(c4cccs4)CC(=O)N3C2)cc1 (stereo not drawn)	-4.22
COc1ccc(S(=O)(=O)N(C)CC(=O)NCc2cccnc2)cc1OC	2.63
CC(C)(C)c1ccc(/C=C/C(=O)Nc2nncs2)cc1	5.69
COc1ccc(NCC(=O)Nc2ccc(C#N)cc2)cc1Cl	-12.4
O=C(Nc1nnc(C2=COCCO2)o1)c1cccc(C(F)(F)F)c1	4.13
CC(=O)c1ccccc1NC(=O)COC(=O)/C=C/c1ccc(C)o1	-9.01
CSc1ncc(C(=O)Nc2cccc(C)c2C)c(C)n1	9.56
O=C(CSc1nc2ccccc2c(=O)n1-c1ccccc1)NCC1CCCO1 (stereo not drawn)	20.2
O=C(COc1ccccc1O)Nc1ccc(Cl)cc1	5.23

Compound	hERG current change (%, negative = inhibition) at 10uM [%]
COc1ccccc1C(CNC(=O)c1ccc(NS(=O)(=O)c2ccc(F)c(C)c2)cc1)N(C)C (stereo not drawn)	-24.4
CCOC(=O)c1cnc(Nc2ccc(OCC)cc2)nc1C	12.6
Cc1c(NC(=O)C(C)OC(=O)COc2ccc(C#N)cc2)c(=O)n(-c2ccccc2)n1C (stereo not drawn)	-46.9
CC1CCN(CC2C(=O)O[C@@H]3C[C@@]4(C)CCC[C@H](C)C4=C[C@H]23)CC(C)(C)C1 (stereo partly drawn)	15
O=S(=O)(NCC(c1cccs1)N1CCc2ccccc2C1)c1ccccc1 (stereo not drawn)	-8.41
O=C(CSc1nccc(=O)[nH]1)c1cc2ccccc2o1	10.9
COc1ccccc1CNC(=O)CCCc1ccccc1	0.395
CCCC(O)(CCN(C)C)c1ccc(OC)cc1 (stereo not drawn)	9.14
N#CC(C(=O)NCCc1ccccc1)c1nc2ccccc2nc1N1CCCCC1 (stereo not drawn)	-5.88
Cc1cc(C)n2nc(CC(=O)NCc3ccc(F)cc3)nc2n1	-0.0725
Cc1ccc(C(=O)Nc2ccnc(-c3ccncc3)n2)cc1	6.03
CC(C)CC(NC(=O)C(NC(=O)OC(C)(C)C)C(C)C)C(=O)NC(CCC(=O)OCc1ccccc1)C(N)=O (stereo not drawn) (Boc-Val-Leu-Glu(OBn)-NH2; configuration not given here)	-1.72
Cn1nc(C(=O)Nc2ccc(Cl)c(S(=O)(=O)N3CCOCC3)c2)c2ccccc2c1=O	-9.05
CCCCNC(=O)CNC(=S)N(Cc1cc(OC)c(OC)c(OC)c1)C1CCCC1	-12.2
COCCNC(=O)N1[C@H]2CC[C@@H]1C(C(=O)OC)=C(c1ccc(-c3ccccc3)c(F)c1)C2	-10.4
COc1ccc(CC(=O)Nc2nc(-c3ccncc3)cs2)cc1	5.97
O=C(NCCCn1ccnc1)c1cc(-c2ccc(Br)cc2)on1	-51.6
Cc1ccc([N+](=O)[O-])cc1-c1ccc(/C=N\n2nnnc2N)o1	-5.53
COc1ccc(S(=O)(=O)N2CCCCCC2)cc1C(=O)NCCc1ccc(F)cc1	-31.4
COC(=O)c1cc2c(cc1Cl)SC(=NCCCN1CCOCC1)NS2(=O)=O	-27.5
CCOC(=O)c1ccc(NC(=O)Cn2cc3c(n2)CCC(C)C3)cc1 (stereo not drawn)	-4.16
CCC1=NN2C(=N)/C(=C\c3ccc(SCc4ccco4)o3)C(=O)N=C2S1	-0.273
Cc1ccn2cc(CCNS(=O)(=O)c3ccc([N+](=O)[O-])cc3)nc2c1	-69.7
COCCC(=O)N1CCC(Oc2ccc(C(=O)N3CCCCCCC3)cc2)CC1	4.88
N/C(Cc1ccc([N+](=O)[O-])cc1)=N\OC(=O)c1ccc2ccccc2c1	2.02
Cc1ccccc1-c1noc(-c2ccccc2C(=O)NCC2CCCO2)n1 (stereo not drawn)	-3.02
COc1ccc(C(=O)NCC(=O)Nc2cccc(S(=O)(=O)NCc3ccco3)c2)cc1OC	13.8
